Measurements reported in the supplement of paper PMC12217912.
The list shows a part of the results. The full chains were built here from the parent and the listed change. Values near 0.05 are background.

B1: TEV protease; numbered along this chain (parent)
chain: MGESLFKGPRDYNPISSSICHLTNESDGHTTSLYGIGFGPFIITNKHLFRRNNGTLVVQSLHGVFKVKDTTTLQQHLVDGRDMIIIRMPKDFPPFPQKLKFREPQREERICLVTTNFQTKSMSSMVSDTSCTFPSGDGIFWKHWIQTKDGQCGSPLVSTRDGFIVGIHSASNFTNTNNYFTSVPKNFMELLTNQEAQQWVSGWRLNADSVLWGGHKVFMVKPEEPFQPVKEATQL

Variants of: B1
Assay: raw area under fraction-flipped curve 0-4 h after induction (AUC4h, not background-subtracted), DNA-recorder readout of cleavage of the substrate (dimensionless); higher = more cleavage of the substrate by the protease variant
Details: temperature: 34 °C; time window: 0-4 h after rhamnose induction
Protocol: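 In vivo DNA recorder in E. coli TOP10(DE3) ΔrhaA at 34 °C. Each TEVp single-site mutant (parent TEVp 0) is paired with a single-site variant of the 7-mer TEVs (canonical ENLYFQ|S). The substrate sits between flexible linkers in a Bxb1-sfGFP-TEVs-SsrA fusion, so cleavage stabilises Bxb1 and speeds flipping of a recombination array, read by NGS. The value is the raw area under the fraction-flipped curve over 0-4 h after rhamnose induction (AUC4h), with ≥20 reads per time point. It is not background-subtracted; inactive controls average about 0.047.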
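Also: Bxb1 expression induced with 0.2% (w/v) L-rhamnose at OD600 near 0.5, cultures sampled hourly, flipped fraction per protease–substrate barcode pair counted by paired-end Illumina sequencing.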

Row | Variant | area with substrate ENLAFQS | area with substrate ENLDFQS | area with substrate ENLEFQS | area with substrate ENLFFQS | area with substrate ENLGFQS | area with substrate ENLHFQS | area with substrate ENLIFQS | area with substrate ENLKFQS | area with substrate ENLMFQS | area with substrate ENLNFQS | area with substrate ENLPFQS | area with substrate ENLQFQS | area with substrate ENLRFQS | area with substrate ENLSFQS | area with substrate ENLVFQS | area with substrate ENLWFQS | area with substrate ENLCFQS | area with substrate ENLLFQS | area with substrate ENLTFQS
1 | I15D | 0.0577 | 0.0552 | 0.0413 | 0.0645 | 0.0519 | 0.0556 | 0.061 | 0.0716 | 0.0485 | 0.0542 | 0.0571 | 0.0423 | 0.0618 | 0.0641 | 0.0587 | 0.0567 |  |  | 
2 | I15E | 0.0516 | 0.0513 | 0.0542 | 0.063 | 0.0621 | 0.0156 | 0.0594 | 0.0626 | 0.0614 | 0.0604 | 0.0533 | 0.0535 |  | 0.0408 | 0.0624 | 0.0565 | 0.0555 | 0.0558 | 0.0595
3 | I15Q | 0.0519 | 0.061 |  | 0.091 | 0.0681 | 0.0639 | 0.0704 | 0.0798 |  | 0.0602 | 0.0646 |  | 0.0598 | 0.0636 | 0.0716 |  | 0.0702 | 0.0661 | 
4 | L22P | 0.0463 | 0.0549 |  | 0.0491 | 0.0428 | 0.0458 | 0.0473 | 0.0452 |  | 0.0219 | 0.0499 | 0.0467 | 0.0466 | 0.0491 | 0.0528 | 0.0375 | 0.0536 | 0.0542 | 
5 | L22I | 0.044 | 0.0629 | 0.0633 | 0.0987 |  |  | 0.094 | 0.0474 |  | 0.0644 | 0.0745 | 0.0713 | 0.0703 | 0.0659 | 0.083 | 0.0676 | 0.079 | 0.0858 | 0.0719
6 | G39I | 0.0354 |  | 0.0508 | 0.0425 |  |  | 0.0441 | 0.0639 |  | 0.0464 | 0.0378 | 0.0275 | 0.0429 | 0.0373 | 0.0433 |  |  | 0.0448 | 
7 | G39E | 0.0484 | 0.0501 | 0.0169 | 0.0501 |  | 0.0331 | 0.0405 | 0.0434 | 0.0336 | 0.0271 | 0.0419 | 0.0417 |  |  | 0.0634 |  | 0.0394 | 0.0506 | 0.0665
8 | G39M | 0.0431 | 0.0436 | 0.0438 | 0.0458 |  |  | 0.0429 | 0.0458 |  | 0.0504 | 0.0364 | 0.0443 | 0.042 | 0.0223 | 0.0152 |  | 0.0449 | 0.0448 | 
9 | P14T | 0.0253 | 0.0678 | 0.0671 | 0.0983 |  | 0.0626 | 0.0817 | 0.0815 | 0.0462 | 0.0525 |  | 0.077 | 0.0733 | 0.0751 |  | 0.0782 |  | 0.0835 | 
10 | P14Y | 0.0589 | 0.0668 | 0.0836 | 0.0727 |  | 0.0729 | 0.0772 | 0.0709 |  | 0.0591 | 0.0481 | 0.0646 |  |  | 0.0839 | 0.0652 |  | 0.0535 | 
11 | P14A | 0.0706 | 0.0573 | 0.0705 | 0.0805 | 0.0672 | 0.0571 | 0.0954 | 0.0964 |  | 0.0621 | 0.0524 | 0.0599 | 0.0586 | 0.0545 |  | 0.0708 |  | 0.0757 | 0.0537
12 | P14M | 0.0697 | 0.0557 | 0.0474 | 0.0884 | 0.0595 | 0.0656 | 0.0709 | 0.0934 |  | 0.0605 | 0.0609 | 0.0761 | 0.0904 | 0.0648 | 0.0745 | 0.0584 | 0.0431 | 0.0967 | 
13 | G37W | 0.0586 | 0.0551 | 0.0576 | 0.0829 |  | 0.0472 | 0.0796 | 0.0588 |  |  | 0.0611 |  | 0.0507 | 0.0473 | 0.0607 | 0.0638 | 0.0711 | 0.0696 | 
14 | G37T | 0.0562 | 0.0561 |  | 0.0596 | 0.0613 | 0.0569 |  | 0.0589 |  | 0.0654 | 0.0559 | 0.0588 |  | 0.0483 |  | 0.0604 |  | 0.0748 | 
15 | G37I | 0.0584 | 0.0511 | 0.0617 | 0.0663 |  | 0.0671 | 0.0543 | 0.0644 | 0.0539 | 0.0463 | 0.0628 |  |  |  | 0.0334 | 0.0919 |  | 0.0646 | 
16 | H21A | 0.0594 | 0.0638 | 0.0638 | 0.0763 | 0.0655 | 0.0689 | 0.0572 | 0.0998 | 0.0748 | 0.0565 | 0.0681 | 0.0698 |  | 0.052 | 0.0723 | 0.0707 |  |  | 0.0607
17 | H21C | 0.0636 | 0.0711 |  | 0.0799 |  | 0.0633 | 0.0906 | 0.0765 |  | 0.0701 |  | 0.064 | 0.0698 |  | 0.067 | 0.0713 | 0.0571 |  | 
18 | H21Q | 0.0504 | 0.0709 |  | 0.0814 | 0.0623 | 0.0701 | 0.0864 | 0.0798 | 0.0917 | 0.0603 | 0.0435 |  |  | 0.0625 |  | 0.0519 |  | 0.0774 | 0.0649
19 | C20Q | 0.0346 | 0.0531 | 0.069 | 0.046 |  |  |  | 0.0676 |  | 0.0551 |  | 0.0434 |  | 0.0365 | 0.0743 |  |  | 0.0474 | 
20 | C20N | 0.0553 | 0.0528 | 0.0482 | 0.0579 | 0.0494 | 0.0525 | 0.0477 | 0.073 |  | 0.0515 |  | 0.0475 | 0.0393 | 0.0433 | 0.0472 | 0.0616 |  | 0.0399 | 
21 | E25Y | 0.0589 | 0.0646 | 0.0608 | 0.0862 |  | 0.0726 | 0.0919 | 0.0811 | 0.0656 | 0.0581 | 0.0627 | 0.0716 | 0.0775 | 0.0609 |  | 0.0565 | 0.0867 | 0.0743 | 
22 | E25R | 0.0916 | 0.0594 |  | 0.0952 |  | 0.0695 | 0.124 | 0.069 | 0.0652 | 0.0644 | 0.0586 | 0.0619 | 0.0454 | 0.0517 |  | 0.0666 | 0.0972 | 0.0924 | 0.0645
23 | E25N | 0.0552 | 0.0691 |  | 0.0779 |  | 0.0706 | 0.0452 | 0.0804 | 0.08 | 0.0558 |  | 0.0428 | 0.07 | 0.0745 |  |  | 0.103 | 0.0784 | 
24 | E25G | 0.0607 | 0.0612 |  | 0.074 | 0.0665 | 0.0591 |  | 0.0731 |  | 0.0629 |  |  | 0.0617 | 0.0553 | 0.0659 | 0.0588 | 0.0615 | 0.0694 | 0.0718
